Columns and labels:
[1] = target: T1, human CD38 on multiple myeloma cells (human, UniProt P28907 1-300); test: flow cytometry on KMS-12-BM cells; one-site binding fit
T1 construct: whole, on cells; Here the protein is the cell lines' own

[2] = target: T1, human CD38 on multiple myeloma cells; test: flow cytometry on NCI-H929 WT cells; one-site binding fit
[3] = target: T1, human CD38 on multiple myeloma cells; test: flow cytometry on NCI-H929 BCMA KO cells (BCMA-negative, CD38-positive); one-site binding fit
[4] = target: T1, human CD38 on multiple myeloma cells; test: flow cytometry on MOLP-8 cells; one-site binding fit
[5] = target: T2, human BCMA on cells (NCI-H929, NCI-H929 CD38 KO, MOLP-8) (human, UniProt Q02223 1-184); test: flow cytometry, NCI-H929 CD38 KO cells (BCMA present, CD38 absent)
T2 construct: whole, on cells; endogenous BCMA of myeloma cell lines
T2 sequence (looked up): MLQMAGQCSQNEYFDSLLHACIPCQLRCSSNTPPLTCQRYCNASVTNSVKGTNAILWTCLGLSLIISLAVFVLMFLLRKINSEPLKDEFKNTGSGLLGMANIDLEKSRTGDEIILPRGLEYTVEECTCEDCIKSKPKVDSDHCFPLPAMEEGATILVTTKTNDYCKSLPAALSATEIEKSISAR

Row | Binder | Kd [1] [nM] | Kd [2] [nM] | Kd [3] [nM] | Kd [4] [nM] | binding result [5]
1 | CD3/BCMA/CD38-149 (bispecific antibody, human IgG1, kappa, L234A L235A, Light chain copies of 3 is inferred from three Fabs sharing the common light chain; also called C1-D6/G6DU/B3-C11; CD3/DU/CD38) heavy 1: QVQLVQSGAEVKKPGSSVKVSCKASGGDFTLYSISWVRQAPGQGLEWMGRIIPTGANANYAQKFQGRVTITADESTSTAYMELSSLRSEDTAVYYCARSTPTYGSGWFDIWGQGTLVTVSSASTKGPSVFPLAPSSKSTSGGTAALGCLVKDYFPEPVTVSWNSGALTSGVHTFPAVLQSSGLYSLSSVVTVPSSSLGTQTYICNVNHKPSNTKVDKKVEPKSCDKTHTCPPCPAPEAAGGPSVFLFPPKPKDTLMISRTPEVTCVVVDVSHEDPEVKFNWYVDGVEVHNAKTKPREEQYNSTYRVVSVLTVLHQDWLNGKEYKCKVSNKALAAPIEKTISKAKGQPREPAVYTLPPSREEMTKNQVKLVCLVTGFYPSDIAVEWESSGQPENNYYTTPPMLDSDGSFSLVSWLNVDKSRWQQGNIFSCSVMHEALHNRFTQKSLSLSPG heavy 2: QVQLVQSGAEVKKPGSSVKVSCKASGGKFSRYAISWVRQAPGQGLEWMGGITALGGYPNYAQKFQGRVTITADESTSTAYMELSSLRSEDTAVYYCARYGYSLYMDIWGQGTLVTVSSASTKGPSVFPLAPSSKSTSGGTAALGCLVKDYFPEPVTVSWNSGALTSGVHTFPAVLQSSGLYSLSSVVTVPSSSLGTQTYICNVNHKPSNTKVDKKVEPKSCGGGGSGGGGSGGGGSQVQLVQSGAEVKKPGSSVKVSCKASGVDFTKYAIHWVRQAPGQGLEWMGGIVPAEGDANYAQKFQGRVTITADESTSTAYMELSSLRSEDTAVYYCARDVLSAGDGYYLYDLMDVWGQGTLVTVSSASTKGPSVFPLAPSSKSTSGGTAALGCLVKDYFPEPVTVSWNSGALTSGVHTFPAVLQSSGLYSLSSVVTVPSSSLGTQTYICNVNHKPSNTKVDKKVEPKSCDKTHTCPPCPAPEAAGGPSVFLFPPKPKDTLMISRTPEVTCVVVDVSHEDPEVKFNWYVDGVEVHNAKTKPREEQYNSTYRVVSVLTVLHQDWLNGKEYKCKVSNKALAAPIEKTISKAKGQPREPEVATFPPSRDELTKNQVTLVCLVTGFYPSDIAVEWESNGQPENNYKTDPPLLESQGSFALSSRLRVDKSRWQQGNVFSCSVMHEALHNHYTQKSLSLSPG light: EIVMTQSPATLSVSPGERATLSCRASQSVSSNLAWYQQKPGQAPRLLIYGASTRATGIPARFSGSGSGTEFTLTISSLQSEDFAVYYCQQYNNWPWTFGQGTKVEIKRTVAAPSVFIFPPSDEQLKSGTASVVCLLNNFYPREAKVQWKVDNALQSGNSQESVTEQDSKDSTYSLSSTLTLSKADYEKHKVYACEVTHQGLSSPVTKSFNRGEC | 45.6 | 118 | 215 | 32.1 | 
2 | CD3/BCMA/CD38-149 (other, control in TREAT format; also called C1-D6/G6DU/B3-C11; CD3/DU/CD38) heavy 1: QVQLVQSGAEVKKPGSSVKVSCKASGGDFTLYSISWVRQAPGQGLEWMGRIIPTGANANYAQKFQGRVTITADESTSTAYMELSSLRSEDTAVYYCARSTPTYGSGWFDIWGQGTLVTVSSASTKGPSVFPLAPSSKSTSGGTAALGCLVKDYFPEPVTVSWNSGALTSGVHTFPAVLQSSGLYSLSSVVTVPSSSLGTQTYICNVNHKPSNTKVDKKVEPKSCDKTHTCPPCPAPEAAGGPSVFLFPPKPKDTLMISRTPEVTCVVVDVSHEDPEVKFNWYVDGVEVHNAKTKPREEQYNSTYRVVSVLTVLHQDWLNGKEYKCKVSNKALAAPIEKTISKAKGQPREPAVYTLPPSREEMTKNQVKLVCLVTGFYPSDIAVEWESSGQPENNYYTTPPMLDSDGSFSLVSWLNVDKSRWQQGNIFSCSVMHEALHNRFTQKSLSLSPG heavy 2: QVQLVQSGAEVKKPGSSVKVSCKASGGKFSRYAISWVRQAPGQGLEWMGGITALGGYPNYAQKFQGRVTITADESTSTAYMELSSLRSEDTAVYYCARYGYSLYMDIWGQGTLVTVSSASTKGPSVFPLAPSSKSTSGGTAALGCLVKDYFPEPVTVSWNSGALTSGVHTFPAVLQSSGLYSLSSVVTVPSSSLGTQTYICNVNHKPSNTKVDKKVEPKSCGGGGSGGGGSGGGGSQVQLVQSGAEVKKPGSSVKVSCKASGVDFTKYAIHWVRQAPGQGLEWMGGIVPAEGDANYAQKFQGRVTITADESTSTAYMELSSLRSEDTAVYYCARDVLSAGDGYYLYDLMDVWGQGTLVTVSSASTKGPSVFPLAPSSKSTSGGTAALGCLVKDYFPEPVTVSWNSGALTSGVHTFPAVLQSSGLYSLSSVVTVPSSSLGTQTYICNVNHKPSNTKVDKKVEPKSCDKTHTCPPCPAPEAAGGPSVFLFPPKPKDTLMISRTPEVTCVVVDVSHEDPEVKFNWYVDGVEVHNAKTKPREEQYNSTYRVVSVLTVLHQDWLNGKEYKCKVSNKALAAPIEKTISKAKGQPREPEVATFPPSRDELTKNQVTLVCLVTGFYPSDIAVEWESNGQPENNYKTDPPLLESQGSFALSSRLRVDKSRWQQGNVFSCSVMHEALHNHYTQKSLSLSPG light: EIVMTQSPATLSVSPGERATLSCRASQSVSSNLAWYQQKPGQAPRLLIYGASTRATGIPARFSGSGSGTEFTLTISSLQSEDFAVYYCQQYNNWPWTFGQGTKVEIKRTVAAPSVFIFPPSDEQLKSGTASVVCLLNNFYPREAKVQWKVDNALQSGNSQESVTEQDSKDSTYSLSSTLTLSKADYEKHKVYACEVTHQGLSSPVTKSFNRGEC |  |  |  |  | no binding
